# Among all 39,000 compounds or so, about 220 (0.56%) showed activity. The list shows a part of the results.
# System: Escherichia coli K-12 BW25113
# Assay: relative growth (OD600 normalised to plate interquartile mean) (fraction); higher = less growth inhibition, active = 0.2 or less
# Settings: 50 µM; LB; incubation time: overnight (16-24 h)
# 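Note: static incubation at 37 °C against the wild-type strain, values averaged over two biological replicates.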
row,SMILES,relative growth
1,C[C@H]1CCCCO[C@@H](CN(C)Cc2ccccc2)[C@@H](C)CN([C@@H](C)CO)C(=O)c2cc(NC(=O)c3ccncc3)ccc2O1,inactive: 1.01
2,C[C@H]1CN([C@@H](C)CO)S(=O)(=O)c2ccc(-c3cccc(F)c3)cc2O[C@H]1CN(C)S(C)(=O)=O,inactive: 1.01
3,COc1ccc(NC(=O)Nc2ccc3c(c2)CC(=O)N([C@@H](C)CO)C[C@@H](C)[C@@H](CN(C)Cc2ccc(-c4ccccc4)cc2)O3)cc1,inactive: 1.01
4,CC[C@@H](NC)C(=O)O,inactive: 0.991
5,NNS(=O)(=O)c1ccc(Cl)cc1,inactive: 1.01
6,Cc1noc(C)c1S(=O)(=O)Nc1cccc2c1O[C@H](CN(C)S(=O)(=O)c1cccs1)[C@H](C)CN([C@@H](C)CO)C2=O,inactive: 1
7,CC(=O)C1CCC2C3CCC4=CC(=O)CCC4(C)C3CCC12C (centres undefined),inactive: 0.904
8,Cc1noc(C)c1NC(=O)N(C)C[C@H]1OCCCC[C@H](C)Oc2ccc(NC(=O)CCC(F)(F)F)cc2C(=O)N([C@@H](C)CO)C[C@@H]1C,inactive: 0.992
9,C[C@@H]1CN([C@H](C)CO)C(=O)c2cccc(NS(C)(=O)=O)c2O[C@@H]1CN(C)S(=O)(=O)c1cccs1,inactive: 0.991
10,CO[C@@H](CN(C)S(=O)(=O)c1ccc(C)cc1)[C@@H](C)CN([C@@H](C)CO)S(=O)(=O)c1cccc(Cl)c1,inactive: 0.982
11,Cc1ccc(S(=O)(=O)N(C)C[C@@H]2Oc3ncc(Br)cc3C(=O)N([C@H](C)CO)C[C@@H]2C)cc1,inactive: 1.02
12,Cc1cccc(S(=O)(=O)N2C[C@@H](O)COC[C@H]3O[C@@H](CC(=O)NCCCN4CCOCC4)CC[C@@H]32)c1,inactive: 0.956
13,COC(=O)C[C@H]1CC[C@@H]2[C@H](COC[C@H](O)CN2S(=O)(=O)c2ccccc2C)O1,inactive: 1
14,Cc1cccnc1[C@@H](NC(=O)C1CCN(Cc2ccc(Cl)c(Cl)c2)CC1)c1ccc(Cl)cc1,inactive: 1.01
15,C[C@@H]1CCCCO[C@@H](CN(C)Cc2ccccc2)[C@H](C)CN([C@@H](C)CO)C(=O)c2cc(NC(=O)C3CCCCC3)ccc2O1,inactive: 1.02
16,C[C@@H]1CN([C@H](C)CO)C(=O)c2cccc(NC(=O)c3cnccn3)c2O[C@H]1CN(C)S(=O)(=O)c1ccccc1,inactive: 0.973
17,COc1ccc(NC(=O)N(C)C[C@@H]2OCCCC[C@H](C)Oc3ccc(NC(=O)C4CCCCC4)cc3C(=O)N([C@H](C)CO)C[C@@H]2C)cc1,inactive: 1
18,COCC(=O)N1C[C@H](C)[C@@H](OC)CN(C)C(=O)c2cc(NC(=O)c3cc(C)on3)ccc2OC[C@H]1C,inactive: 0.979
19,C[C@H](CO)N1C[C@H](C)[C@@H](CN(C)Cc2ccc(Oc3ccccc3)cc2)Oc2c(NC(=O)c3nc4ccccc4s3)cccc2C1=O,inactive: 1.02
20,C[C@@H]1CCCCO[C@@H](CN(C)Cc2ccccc2)[C@H](C)CN([C@@H](C)CO)C(=O)c2cc(NC(=O)Nc3ccccc3)ccc2O1,inactive: 0.981

row,SMILES,relative growth
1,C=CCC[C@H](Cc1ccc(F)cc1)C(=O)OC[C@@H](NC(=O)[C@@H](CC=C)CC(=O)N[C@H](CO)Cc1ccccc1)C(C)(C)C,inactive: 1.02
2,Cc1ccc(S(=O)(=O)Nc2ccc3c(c2)C(=O)N([C@H](C)CO)C[C@H](C)[C@H](CN(C)CC2CC2)O3)cc1,inactive: 0.993
3,Cc1noc(C)c1NC(=O)N(C)C[C@@H]1Oc2ccc(NS(=O)(=O)c3cn(C)cn3)cc2CC(=O)N([C@H](C)CO)C[C@H]1C,inactive: 0.979
4,C[C@@H]1CCCCO[C@H](CN(C)CC2CCCCC2)[C@H](C)CN([C@H](C)CO)C(=O)c2cc(NC(=O)Nc3ccccc3)ccc2O1,inactive: 0.988
5,C[C@@H]1CN([C@@H](C)CO)C(=O)c2cc(NS(=O)(=O)c3ccc(Cl)cc3)ccc2O[C@@H](C)CCCCO[C@H]1CN(C)Cc1ccc2c(c1)OCO2,inactive: 0.992
6,C[C@H]1CN([C@@H](C)CO)S(=O)(=O)c2ccc(C#Cc3ccccc3F)cc2O[C@@H]1CN(C)C(=O)c1ccc2c(c1)OCO2,inactive: 1.04
7,CCS(=O)(=O)N1CC[C@]2(CC1)CN([C@H](CO)c1[nH]c3cc(ccc3c12)OC)C(=O)c1ccc(cc1)F,inactive: 1
8,COc1ccc2c(c1OC)C(=O)OC2C1c2c(cc3c(c2OC)OCO3)CCN1C.Cl (centres undefined),active: 0.0513
9,C[C@H]1CN([C@@H](C)CO)S(=O)(=O)c2ccc(C#CC3(O)CCCC3)cc2O[C@@H]1CN(C)C(=O)Cc1cccnc1,inactive: 1.02
10,COc1ccc(S(=O)(=O)Nc2ccc3c(c2)C(=O)N([C@@H](C)CO)C[C@@H](C)[C@H](CN(C)C(=O)Nc2cccc4ccccc24)OCCCC[C@@H](C)O3)cc1,inactive: 1.03
11,NCC(=O)OCc1ccccc1,inactive: 0.993
12,O=C(C[C@@H]1CC[C@@H]2[C@H](COC[C@@H](O)CN2C(=O)Nc2ccc(Cl)cc2)O1)NC1Cc2ccccc2C1,inactive: 0.935
13,Cn1nc(CCO)cc1C(F)(F)F,inactive: 0.977
14,CC(C)NC(=O)Nc1ccc2c(c1)C(=O)N([C@H](C)CO)C[C@H](C)[C@@H](CN(C)Cc1ccc(-c3ccccc3)cc1)O2,inactive: 0.997
15,COc1ccc(CN(C)C[C@@H]2OCCCC[C@H](C)Oc3ccc(NS(=O)(=O)c4ccc(F)cc4)cc3C(=O)N([C@H](C)CO)C[C@H]2C)cc1,inactive: 0.899
16,C[C@@H]1CCCCO[C@H](CN(C)S(=O)(=O)c2ccc(Cl)cc2)[C@H](C)CN([C@H](C)CO)C(=O)c2cc(NS(=O)(=O)c3cccs3)ccc2O1,inactive: 1.01
17,C[C@@H]1CN([C@@H](C)CO)C(=O)c2cc(NC(=O)Cc3ccccc3)ccc2O[C@@H](C)CCCCO[C@H]1CN(C)Cc1ccc2c(c1)OCO2,inactive: 0.993
18,COc1cccc(NC(=O)N2C[C@H](O)COC[C@@H]3O[C@H](CC(=O)NC4Cc5ccccc5C4)CC[C@H]32)c1,inactive: 0.972
19,C[C@H](CO)N1C[C@H](C)[C@H](CN(C)Cc2ccc(C(=O)Nc3ccccc3N)cc2)Oc2c(NC(=O)Nc3ccc(C(F)(F)F)cc3)cccc2C1=O,inactive: 1.05

# — the supplement of paper PMC9446081
